# Test results taken from the supplement of paper PMC10037445.
# Over roughly 2,900 compounds, “NF-kB SEAP reporter activity, fold change vs agonist alone” has its median near 0.99; the highest 2% begin near 2.6. The list shows a part of the results.
# Experiments:
# RAW-Dual [1] = experiment: NF-kB SEAP reporter activity, fold change vs agonist alone; higher = enhanced NF-kB activity; settings: library stock concentration (final ~1000-fold dilution): 10 mM
# Procedure, shortened: (§1)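 RAW-Dual macrophages (50,000 cells/well in DMEM, 384-well plates) received 50 nL of library stock by pin tool, then a PRR agonist 1 h later, and were kept at 37 °C, 5% CO2. After 20 hours, supernatant was read for IRF by QuantiLuc luminescence and for NF-κB by QuantiBlue absorbance at 620 nm. Reporter activity is fold change over agonist-alone wells. Cytotoxic wells had IncuCyte confluency below 70% of agonist controls in both mask sets.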
# RAW-Dual [2] = experiment: NF-kB SEAP reporter activity, fold change vs agonist alone; cytotoxicity flag (confluency mask): not cytotoxic; higher = enhanced NF-kB activity
# Procedure, shortened: as §1
# RAW-Dual [3] = experiment: NF-kB SEAP reporter activity, fold change vs agonist alone; cytotoxicity flag (confluency mask): cytotoxic (confluency <70% of control); higher = enhanced NF-kB activity
# Procedure, shortened: as §1
# [4] = cytotoxicity flag (confluency mask): not cytotoxic, agonist: Imiquimod (TLR7) […]
# [5] = cytotoxicity flag (confluency mask): not cytotoxic, agonist: MPLA (TLR4) […]
# [6] = agonist: ODN 1826 (TLR9) 0.5 ug/mL
# [7] = agonist: Pam2CSK4 (TLR2/6) 0.1 ug/mL
# [8] = agonist: Pam3CSK4 (TLR2/1) 0.1 ug/mL
# [9] = cytotoxicity flag (confluency mask): cytotoxic (confluency <70% of control), agonist: Imiquimod (TLR7) […]
# [10] = cytotoxicity flag (confluency mask): cytotoxic (confluency <70% of control), agonist: MPLA (TLR4) […]
smiles,measurement,setting,value
CC(=O)Oc1ccccc1C(=O)O,NF-kB SEAP reporter activity,RAW-Dual [1]; [4],0.97
same,NF-kB SEAP reporter activity,RAW-Dual [1]; [5],1.03
CC(=O)Oc1ccccc1C(=O)O (library stock concentration (final ~1000-fold dilution): 10 mM),NF-kB SEAP reporter activity,RAW-Dual [2]; agonist: LPS (TLR4) 0.1 ug/mL,1.02
same,NF-kB SEAP reporter activity,RAW-Dual [2]; [6],0.998
same,NF-kB SEAP reporter activity,RAW-Dual [2]; [7],1.06
same,NF-kB SEAP reporter activity,RAW-Dual [2]; [8],1.11
O=C(O)c1ccc(-c2c[nH]c3ncc(-c4ccccc4)cc23)cc1C1CCCC1 (library stock concentration (final ~1000-fold dilution): 10 mM),NF-kB SEAP reporter activity,RAW-Dual [2]; agonist: LPS (TLR4) 0.1 ug/mL,1.15
same,NF-kB SEAP reporter activity,RAW-Dual [2]; [6],0.388
same,NF-kB SEAP reporter activity,RAW-Dual [2]; [7],0.646
same,NF-kB SEAP reporter activity,RAW-Dual [2]; [8],0.497
O=C(O)c1ccc(-c2c[nH]c3ncc(-c4ccccc4)cc23)cc1C1CCCC1,NF-kB SEAP reporter activity,RAW-Dual [1]; [4],0.374
same,NF-kB SEAP reporter activity,RAW-Dual [1]; [5],1.16
Cc1ncc(CO)c(CO)c1O,NF-kB SEAP reporter activity,RAW-Dual [1]; [4],0.463
same,NF-kB SEAP reporter activity,RAW-Dual [1]; [5],0.799
Cc1ncc(CO)c(CO)c1O (library stock concentration (final ~1000-fold dilution): 10 mM),NF-kB SEAP reporter activity,RAW-Dual [2]; agonist: LPS (TLR4) 0.1 ug/mL,1.31
same,NF-kB SEAP reporter activity,RAW-Dual [2]; [6],0.734
same,NF-kB SEAP reporter activity,RAW-Dual [2]; [7],0.939
same,NF-kB SEAP reporter activity,RAW-Dual [2]; [8],1.04
OC(c1ccccc1)(c1ccccc1)C12CC[N+](CCOCc3ccccc3)(CC1)CC2,NF-kB SEAP reporter activity,RAW-Dual [1]; [4],1.09
same,NF-kB SEAP reporter activity,RAW-Dual [1]; [5],0.997
OC(c1ccccc1)(c1ccccc1)C12CC[N+](CCOCc3ccccc3)(CC1)CC2 (library stock concentration (final ~1000-fold dilution): 10 mM),NF-kB SEAP reporter activity,RAW-Dual [2]; agonist: LPS (TLR4) 0.1 ug/mL,1.15
same,NF-kB SEAP reporter activity,RAW-Dual [2]; [6],1.01
same,NF-kB SEAP reporter activity,RAW-Dual [2]; [7],0.809
same,NF-kB SEAP reporter activity,RAW-Dual [2]; [8],1.05
COc1cc2nccc(Oc3ccc(NC(=O)NC4CC4)c(Cl)c3)c2cc1C(N)=O.CS(=O)(=O)O (library stock concentration (final ~1000-fold dilution): 10 mM),NF-kB SEAP reporter activity,RAW-Dual [2]; agonist: LPS (TLR4) 0.1 ug/mL,1.19
same,NF-kB SEAP reporter activity,RAW-Dual [2]; [6],0.54
same,NF-kB SEAP reporter activity,RAW-Dual [2]; [7],0.605
same,NF-kB SEAP reporter activity,RAW-Dual [2]; [8],0.353
COc1cc2nccc(Oc3ccc(NC(=O)NC4CC4)c(Cl)c3)c2cc1C(N)=O.CS(=O)(=O)O,NF-kB SEAP reporter activity,RAW-Dual [1]; [5],1.07
COc1cc2c(cc1-c1c(C)noc1C)ncc1[nH]c(=O)n(C(C)c3ccccn3)c12 (stereo not drawn),NF-kB SEAP reporter activity,RAW-Dual [1]; [9],2.61
same,NF-kB SEAP reporter activity,RAW-Dual [1]; [10],2.46
COc1cc2c(cc1-c1c(C)noc1C)ncc1[nH]c(=O)n(C(C)c3ccccn3)c12 (stereo not drawn) (library stock concentration (final ~1000-fold dilution): 10 mM),NF-kB SEAP reporter activity,RAW-Dual [3]; agonist: LPS (TLR4) 0.1 ug/mL,4.87
same,NF-kB SEAP reporter activity,RAW-Dual [3]; [6],2.55
same,NF-kB SEAP reporter activity,RAW-Dual [3]; [7],0.529
same,NF-kB SEAP reporter activity,RAW-Dual [3]; [8],1.93
O=c1oc2cc(O)ccc2c2ccc(O)cc12 (library stock concentration (final ~1000-fold dilution): 10 mM),NF-kB SEAP reporter activity,RAW-Dual [2]; agonist: LPS (TLR4) 0.1 ug/mL,1.08
same,NF-kB SEAP reporter activity,RAW-Dual [2]; [6],0.575
same,NF-kB SEAP reporter activity,RAW-Dual [2]; [7],0.257
same,NF-kB SEAP reporter activity,RAW-Dual [2]; [8],0.455
O=c1oc2cc(O)ccc2c2ccc(O)cc12,NF-kB SEAP reporter activity,RAW-Dual [1]; [4],1.26
same,NF-kB SEAP reporter activity,RAW-Dual [1]; [5],1.58
Cc1cc(Nc2ncc3c(n2)N(C)C(=O)N(c2cc(NC(=O)c4cccc(C(F)(F)F)c4)ccc2C)C3)n(C)n1,NF-kB SEAP reporter activity,RAW-Dual [1]; [9],0.128
same,NF-kB SEAP reporter activity,RAW-Dual [1]; [10],0.265
Cc1cc(Nc2ncc3c(n2)N(C)C(=O)N(c2cc(NC(=O)c4cccc(C(F)(F)F)c4)ccc2C)C3)n(C)n1 (library stock concentration (final ~1000-fold dilution): 10 mM),NF-kB SEAP reporter activity,RAW-Dual [3]; agonist: LPS (TLR4) 0.1 ug/mL,0.283
same,NF-kB SEAP reporter activity,RAW-Dual [3]; [6],0.186
same,NF-kB SEAP reporter activity,RAW-Dual [3]; [7],0.0623
same,NF-kB SEAP reporter activity,RAW-Dual [3]; [8],0.124
CN1CCN(C2=Nc3ccccc3Oc3ccc(Cl)cc32)CC1.O=C(O)CCC(=O)O,NF-kB SEAP reporter activity,RAW-Dual [1]; [4],1.02
same,NF-kB SEAP reporter activity,RAW-Dual [1]; [5],1.04
CN1CCN(C2=Nc3ccccc3Oc3ccc(Cl)cc32)CC1.O=C(O)CCC(=O)O (library stock concentration (final ~1000-fold dilution): 10 mM),NF-kB SEAP reporter activity,RAW-Dual [2]; agonist: LPS (TLR4) 0.1 ug/mL,1.05
same,NF-kB SEAP reporter activity,RAW-Dual [2]; [6],0.754
same,NF-kB SEAP reporter activity,RAW-Dual [2]; [7],0.645
same,NF-kB SEAP reporter activity,RAW-Dual [2]; [8],0.886
CCN(CC)CC(O)CNc1ccc(NCC2CO2)c2c1C(=O)c1ccccc1C2=O (stereo not drawn) (library stock concentration (final ~1000-fold dilution): 10 mM),NF-kB SEAP reporter activity,RAW-Dual [3]; agonist: LPS (TLR4) 0.1 ug/mL,0.382
same,NF-kB SEAP reporter activity,RAW-Dual [3]; [6],0.203
same,NF-kB SEAP reporter activity,RAW-Dual [3]; [7],0.134
same,NF-kB SEAP reporter activity,RAW-Dual [3]; [8],0.195
CCN(CC)CC(O)CNc1ccc(NCC2CO2)c2c1C(=O)c1ccccc1C2=O (stereo not drawn),NF-kB SEAP reporter activity,RAW-Dual [1]; [9],0.314
same,NF-kB SEAP reporter activity,RAW-Dual [1]; [10],0.521
O=C1NC(=O)/C(=C\c2ccc(-c3ccc(F)cc3)o2)S1,NF-kB SEAP reporter activity,RAW-Dual [1]; [4],0.656
same,NF-kB SEAP reporter activity,RAW-Dual [1]; [5],0.708
O=C1NC(=O)/C(=C\c2ccc(-c3ccc(F)cc3)o2)S1 (library stock concentration (final ~1000-fold dilution): 10 mM),NF-kB SEAP reporter activity,RAW-Dual [2]; agonist: LPS (TLR4) 0.1 ug/mL,0.676
same,NF-kB SEAP reporter activity,RAW-Dual [2]; [6],0.6
same,NF-kB SEAP reporter activity,RAW-Dual [2]; [7],0.477
same,NF-kB SEAP reporter activity,RAW-Dual [2]; [8],0.683
Cl.O=c1[nH]ccc2c(S(=O)(=O)N3CCCNCC3)cccc12 (library stock concentration (final ~1000-fold dilution): 10 mM),NF-kB SEAP reporter activity,RAW-Dual [2]; agonist: LPS (TLR4) 0.1 ug/mL,1.22
same,NF-kB SEAP reporter activity,RAW-Dual [2]; [6],0.968
same,NF-kB SEAP reporter activity,RAW-Dual [2]; [7],1.05
same,NF-kB SEAP reporter activity,RAW-Dual [2]; [8],1.23
Cl.O=c1[nH]ccc2c(S(=O)(=O)N3CCCNCC3)cccc12,NF-kB SEAP reporter activity,RAW-Dual [1]; [4],1
same,NF-kB SEAP reporter activity,RAW-Dual [1]; [5],0.986
O=[N+]([O-])c1cncn1CCN1CCOCC1,NF-kB SEAP reporter activity,RAW-Dual [1]; [4],0.914
same,NF-kB SEAP reporter activity,RAW-Dual [1]; [5],1.09
O=[N+]([O-])c1cncn1CCN1CCOCC1 (library stock concentration (final ~1000-fold dilution): 10 mM),NF-kB SEAP reporter activity,RAW-Dual [2]; agonist: LPS (TLR4) 0.1 ug/mL,0.953
same,NF-kB SEAP reporter activity,RAW-Dual [2]; [6],0.947
same,NF-kB SEAP reporter activity,RAW-Dual [2]; [7],1.02
same,NF-kB SEAP reporter activity,RAW-Dual [2]; [8],0.84
C=CC(=O)Nc1cc(Nc2nccc(-c3c[nH]c4ccccc34)n2)c(OC)cc1N(C)CCN(C)C,NF-kB SEAP reporter activity,RAW-Dual [1]; [4],0.96
same,NF-kB SEAP reporter activity,RAW-Dual [1]; [5],1.03
C=CC(=O)Nc1cc(Nc2nccc(-c3c[nH]c4ccccc34)n2)c(OC)cc1N(C)CCN(C)C (library stock concentration (final ~1000-fold dilution): 10 mM),NF-kB SEAP reporter activity,RAW-Dual [2]; agonist: LPS (TLR4) 0.1 ug/mL,1.46
same,NF-kB SEAP reporter activity,RAW-Dual [2]; [6],0.861
same,NF-kB SEAP reporter activity,RAW-Dual [2]; [7],0.904
same,NF-kB SEAP reporter activity,RAW-Dual [2]; [8],1.22
